± gives the standard deviation of the averaged measurements. Some of the results follow. Repeats are few or missing, and single values can be far off.
system: KCNR; assay: area under viability curve (10 nM-1 µM), viability relative to solvent or trametinib-only control (AUC (arbitrary, % viability x concentration range)); higher = less growth inhibition (more viable cells); conditions: 72 h compound exposure (96 h after seeding) h; trametinib co-treatment 0 µM
Protocol: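 Four neuroblastoma cell lines (KCNR, SKNBE, SJNB8, SKNAS) were seeded in 384-well plates. At 24 h, 1 µM trametinib or DMSO was added, followed by library compounds at 10 nM, 100 nM and 1 µM. Viability was read by MTT at 96 h and normalised to solvent-treated cells (DMSO arm) or to trametinib-only cells (trametinib arm). The area under the 3-point viability curve was computed in GraphPad Prism; units are as given (approx. 100000 = no effect).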
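Also: KCNR is a neuroblastoma cell line carrying an ALK mutation, in this DMSO arm without trametinib, viability was normalised to solvent-treated cells.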

SMILES | area under viability curve
C[C@]12CC[C@H](O)CC1=CC[C@@H]1[C@@H]2CC[C@]2(C)C(c3cccnc3)=CC[C@@H]12 [Abiraterone] | 106000
CC1(C)CCC(CN2CCN(c3ccc(C(=O)NS(=O)(=O)c4ccc(NCC5CCOCC5)c([N+](=O)[O-])c4)c(Oc4cnc5[nH]ccc5c4)c3)CC2)=C(c2ccc(Cl)cc2)C1 [Venetoclax] | 40900
CC(/C=C/C(=O)NO)=C\[C@@H](C)C(=O)c1ccc(N(C)C)cc1 [Trichostatin A] | 39500
COC(=O)[C@]12CCC(C)(C)C[C@H]1[C@H]1C(=O)C=C3[C@@]4(C)C=C(C#N)C(=O)C(C)(C)[C@@H]4CC[C@@]3(C)[C@]1(C)CC2 [Bardoxolone methyl] | 48900
O=NN(CCCl)C(=O)NCCCl [Carmustine] | 101000
CC(C)C[C@H](NC(=O)[C@H](Cc1ccccc1)NC(=O)c1cnccn1)B(O)O [Bortezomib] | 2260
CCCC(CCC)C(=O)NO [Valproic acid hydroxamate] | 102000
COc1ccc2c(Oc3ccc(NC(=O)c4c(C)n(CC(C)(C)O)n(-c5ccccc5)c4=O)nc3)ccnc2c1 | 101000
CC(=O)Nc1ccc(C(=O)Nc2ccccc2N)cc1 [Tacedinaline] | 106000
C[C@@H](Oc1cc(-c2cnn(C3CCNCC3)c2)cnc1N)c1c(Cl)ccc(F)c1Cl [Crizotinib] | 61600 ± 7200
COc1cc([C@@H]2c3cc4c(cc3[C@@H](O[C@@H]3O[C@@H]5CO[C@@H](C)O[C@H]5[C@H](O)[C@H]3O)[C@H]3COC(=O)[C@H]23)OCO4)cc(OC)c1O [Etoposide] | 47600
CC(C)(C)OC(=O)Nc1ccc(-c2cc(C(=O)NCCCCCCC(=O)NO)no2)cc1 | 102000
O=C(/C=C/C#Cc1cccc(NS(=O)(=O)c2ccccc2)c1)NO [Oxamflatin] | 42300
Nc1nc(Cl)nc2c1ncn2[C@H]1C[C@H](O)[C@@H](CO)O1 [Cladribine] | 79600
COc1cc2/c(=N/c3ccc(Br)cc3F)nc[nH]c2cc1OCC1CCN(C)CC1 [Vandetanib] | 96700
Cc1nc(N)sc1-c1ccnc(Nc2ccc(N3CCOCC3)cc2)n1 | 77400
O=C(NC[C@H](O)CO)c1ccncc1Nc1ccc(I)cc1F [Pimasertib] | 98600
CC(C)C(=O)SCCCCCCC(=O)Nc1nc(-c2ccccc2)cs1 | 99000
C[C@]1(c2nc3c(C(N)=O)cccc3[nH]2)CCCN1 [Veliparib] | 106000
CCN(CC)CCNC(=O)c1c(C)[nH]c(/C=C2\C(=O)Nc3ccc(F)cc32)c1C [Sunitinib] | 95100

same assay, conditions: 72 h compound exposure (96 h after seeding) h; trametinib co-treatment 1 µM

SMILES | area under viability curve
C[C@]12CC[C@H](O)CC1=CC[C@@H]1[C@@H]2CC[C@]2(C)C(c3cccnc3)=CC[C@@H]12 [Abiraterone] | 102000
CC1(C)CCC(CN2CCN(c3ccc(C(=O)NS(=O)(=O)c4ccc(NCC5CCOCC5)c([N+](=O)[O-])c4)c(Oc4cnc5[nH]ccc5c4)c3)CC2)=C(c2ccc(Cl)cc2)C1 [Venetoclax] | 9590
CC(/C=C/C(=O)NO)=C\[C@@H](C)C(=O)c1ccc(N(C)C)cc1 [Trichostatin A] | 10400
COC(=O)[C@]12CCC(C)(C)C[C@H]1[C@H]1C(=O)C=C3[C@@]4(C)C=C(C#N)C(=O)C(C)(C)[C@@H]4CC[C@@]3(C)[C@]1(C)CC2 [Bardoxolone methyl] | 42600
O=NN(CCCl)C(=O)NCCCl [Carmustine] | 107000
CC(C)C[C@H](NC(=O)[C@H](Cc1ccccc1)NC(=O)c1cnccn1)B(O)O [Bortezomib] | 1830
CCCC(CCC)C(=O)NO [Valproic acid hydroxamate] | 107000
COc1ccc2c(Oc3ccc(NC(=O)c4c(C)n(CC(C)(C)O)n(-c5ccccc5)c4=O)nc3)ccnc2c1 | 102000
CC(=O)Nc1ccc(C(=O)Nc2ccccc2N)cc1 [Tacedinaline] | 106000
C[C@@H](Oc1cc(-c2cnn(C3CCNCC3)c2)cnc1N)c1c(Cl)ccc(F)c1Cl [Crizotinib] | 61300 ± 4600
COc1cc([C@@H]2c3cc4c(cc3[C@@H](O[C@@H]3O[C@@H]5CO[C@@H](C)O[C@H]5[C@H](O)[C@H]3O)[C@H]3COC(=O)[C@H]23)OCO4)cc(OC)c1O [Etoposide] | 22700
CC(C)(C)OC(=O)Nc1ccc(-c2cc(C(=O)NCCCCCCC(=O)NO)no2)cc1 | 101000
O=C(/C=C/C#Cc1cccc(NS(=O)(=O)c2ccccc2)c1)NO [Oxamflatin] | 23100
Nc1nc(Cl)nc2c1ncn2[C@H]1C[C@H](O)[C@@H](CO)O1 [Cladribine] | 80700
COc1cc2/c(=N/c3ccc(Br)cc3F)nc[nH]c2cc1OCC1CCN(C)CC1 [Vandetanib] | 94900
Cc1nc(N)sc1-c1ccnc(Nc2ccc(N3CCOCC3)cc2)n1 | 76200
O=C(NC[C@H](O)CO)c1ccncc1Nc1ccc(I)cc1F [Pimasertib] | 103000
CC(C)C(=O)SCCCCCCC(=O)Nc1nc(-c2ccccc2)cs1 | 102000
C[C@]1(c2nc3c(C(N)=O)cccc3[nH]2)CCCN1 [Veliparib] | 103000
CCN(CC)CCNC(=O)c1c(C)[nH]c(/C=C2\C(=O)Nc3ccc(F)cc32)c1C [Sunitinib] | 93000

From the supplement of paper PMC9990464
